In the RNAGym collection of RNA variant scans (doi:10.7554/elife.90254) one finds self-cleavage data, which are given here for 21 variants.

To fix the notation:
B1: OR4K15 (parent)
chain: GUUAACGGUCAUAGGCCAUGGAAACUAGGAGCACCAUUUCGCUGCCAGUGAAGAAAUGAACAAAGAAAAUCUGGGCCAGGCAGGCAUCAAAAGAAAUAGUCUUGCGCUCAACCAGAAAGUCUGUAAUCAUUUUAAGGGUA

Read counts are not given, so values of variants with three or more changes are uncertain.

Variants of B1 are the subject of this series. In words: self-cleavage, relative activity (ratio to wild type); higher = more cleavage; in vitro, sequencing; the parent is a self-cleaving ribozyme.
GUUAACGGUCAUAGGCCAUGGAAACUAGGAGCACCAUUUCGCUGCCAGUGAAGAAAUGAACAAAGAAACUCUGGGCCAGGCAGGCAUCAAAAGAAUUAGUCUUGCGCUCGACCAGAAAGUCUGUAAUCAUUUUAAGGGUA [A69C A96U A110G]: the self-cleavage came out at 0.12.

As for GUUAACGGUCAUAGGCCAUGGAAACUAGGAGCACCAUUUCGCUGCCAGUGAAGAAAUGAACAAAGAAAGUCGGGGCCAGGCAGGCAUCAAAAGAAAUAGUCUUGUGCUCAACCAGAAAGUCUGUAAUCAUUUUAAGGGUA [A69G U72G C105U], the self-cleavage is 0.1.

Turning to GUUAACGGUCAUAGGCCAUGGAAACUAGGAGCACCAUUUCGCUGCCAGUGAAGAAAUGAACAAAGAAAGUCCGGGCCAGACAGGCAUCAAAAGAAAUAGUCUUGCGCUCAACCAGAAAGUCUGUAAUCAUUUUAAGGGUA [A69G U72C G80A], the self-cleavage came out at 0.18.

In the case of GUUAACGGUCAUAGGCCAUGGAAACUAGGAGCACCAUUUCGCUGCCAGUGAAGAAAUGAACAAAGAAUAUCUGGGCCAGGCGGGCAUCAAAGGAAAUAGUCUUGCGCUCAACCAGAAAGUCUGUAAUCAUUUUAAGGGUA [A68U A82G A92G], the self-cleavage stood at 0.19.

In the case of GUUAACGGUCAUAGGCCAUGGAAACUAGGAGCACCAUUUCGCUGCCAGUGAAGAAAUGAACAAAGAAUAUCUGGGCCAGGCAGGCGUCAAAAGAAGUAGUCUUGCGCUCAACCAGAAAGUCUGUAAUCAUUUUAAGGGUA [A68U A86G A96G], the self-cleavage turned out to be 2.59.

Take GUUAACGGUCAUAGGCCAUGGAAACUAGGAGCACCAUUUCGCUGCCAGUGAAGAAAUGAACAAAGAAAGACUGGGCCAGGCAGGCAUCAAAAGAAAUAGUCUUGCGCUCAACCAGAAAGUCUGUAACCAUUUUAAGGGUA [A69G U70A U127C]: the self-cleavage is 0.16.

For the variant GUUAACGGUCAUAGGCCAUGGAAACUAGGAGCACCAUUUCGCUGCCAGUGAAGAAAUGAACAAAGAAUAUCCGGGCCAGGCAGGCAUCAAUAGAAGUAGUCUUGCGCUCAACCAGAAAGUCUGUAAUUAAUUUAAGGGUA [A68U U72C A91U A96G C128U U130A], the self-cleavage worked out at 0.17.

GUUAACGGUCAUAGGCCAUGGAAACUAGGAGCACCAUUUCGCUGCCAGUGAAGAAAUGAACAAAGAAAGUCUGGGCCAGGCAGGCAUCAAAAGAAACAGUCUUGCGCUCAACCAGAAAGUCUGUAAUCAUUUUAAGGGCA [A69G U97C U139C]: the self-cleavage turned out to be 1.17.

Regarding GUUAACGGUCAUAGGCCAUGGAAACUAGGAGCACCAUUUCGCUGCCAGUGAAGAAAUGAACAAAGAAAGUCUGGGCCAGGCAGGCAUCAAGAGAAGUAGUCUUGCGCUCAACCAGAAAGUCUGUAAUCAUUUUAAGGGUA [A69G A91G A96G], the self-cleavage is 1.18.

For the variant GUUAACGGUCAUAGGCCAUGGAAACUAGGAGCACCAUUUCGCUGCCAGUGAAGAAAUGAACAAAGAAAGUCUGGGCCAGGCAGGCAUCAAAAGAAAUAGUCUUGCGCUCAACCAGAAUGCCUGUAAUCAUUUUAAGGGUA [A69G A118U U120C], the self-cleavage came to 0.33.

With GUUAACGGUCAUAGGCCAUGGAAACUAGGAGCACCAUUUCGCUGCCAGUGAAGAAAUGAACAAAGAAAGUCUGGGCCAGGCAGGCAUCAAAAGAAAUAGUCUUGCGCUCAGCCAGGGAGUCUGUAAUCAUUUUAAGGGUA [A69G A111G A116G A117G], the self-cleavage turned out to be 0.01.

GUUAACGGUCAUAGGCCAUGGAAACUAGGAGCACCAUUUCGCUGCCAGUGAAGAAAUGAACAAAGAAUAUCUGGGCCAGGCAGGCAUCGAAAGAAAUAGUCUUGCGCUCAACCAGAGAGUCUGUAAUCAUUUUAAGGGUA [A68U A89G A117G]: the self-cleavage was determined as 2.31.

Regarding GUUAACGGUCAUAGGCCAUGGAAACUAGGAGCACCAUUUCGCUGCCAGUGAAGAAAUGAACAAAGAAAGUCUGGGCCAGGCAGGCAUCAUAAGAAAUAGUCUUGCGCUCAACCAGGAAGUCUGUAAUCAUCUUAAGGGUA [A69G A90U A116G U131C], the self-cleavage is 0.37.

Take GUUAACGGUCAUAGGCCAUGGAAACUAGGAGCACCAUUUCGCUGCCAGUGAAGAAAUGAACAAAGAAUAUCUGGGCCAGGCGGGCAUCAAAAGAGAUAGUCUUGCGCUCAACCAGAAAGUCUGUAAUCAUUUUAAGGGUA [A68U A82G A95G]: the self-cleavage amounted to 0.7.

As for GUUAACGGUCAUAGGCCAUGGAAACUAGGAGCACCAUUUCGCUGCCAGUGAAGAAAUGAACAAAGAAAGUCUGGGCCAGGCAGGCAUCAAAAGAAAUAGUCUCGCGCUCAACCAGAAAGUCUGUAAUCACUUUAAGGGUA [A69G U103C U130C], the self-cleavage was 0.17.

As to GUUAACGGUCAUAGGCCAUGGAAACUAGGAGCACCAUUUCGCUGCCAGUGAAGAAAUGAACAAAGAAAGUCUGGGCCAGGCAGGCAUCAAAAGAAAUAGCCUUGCGCUCAACCAGGAAGUCUGUAAUCAUUUUAAGGGUA [A69G U100C A116G], the self-cleavage worked out at 2.06.

As for GUUAACGGUCAUAGGCCAUGGAAACUAGGAGCACCAUUUCGCUGCCAGUGAAGAAAUGAACAAAGAAUAUCUGGGCCAGGCAGGCAUCAAAAGCAAUAGUCUUGCGCUCAACCAGAAAGUCUGUAAUCAUUGUAAGGGUA [A68U A94C U132G], the self-cleavage stood at 1.16.

On to GUUAACGGUCAUAGGCCAUGGAAACUAGGAGCACCAUUUCGCUGCCAGUGAAGAAAUGAACAAAGAAAGUCUGGGCCAGGCAGGCAUCAAAUGGGAUAGUCUUGCGCUCAACCAGAAAGUCUGUAAUCAUUUUAAGGGUA [A69G A92U A94G A95G], for which the self-cleavage turned out to be 1.49.

Consider GUUAACGGUCAUAGGCCAUGGAAACUAGGAGCACCAUUUCGCUGCCAGUGAAGAAAUGAACAAAGAAAGUCUGGGCCAGGCAGGCAUCAAAAGAAAUAGUCUUGCGCCCAACCAGGAAGUCUGUAAUCAUUUUAAGGGUA [A69G U108C A116G], for which the self-cleavage was found to be 0.01.

For the variant GUUAACGGUCAUAGGCCAUGGAAACUAGGAGCACCAUUUCGCUGCCAGUGAAGAAAUGAACAAAGAAUAUCUGGGCCUGGCAGGCAUCAAGAGAAAUAGUCUUGCGCUCAACCAGAAAGUCUGUAAUCAUUUUAAGGGUA [A68U A78U A91G], the self-cleavage was determined as 0.05.

Turning to GUUAACGGUCAUAGGCCAUGGAAACUAGGAGCACCAUUUCGCUGCCAGUGAAGAAAUGAACAAAGAAACUCUGGGCCAGGCAGGCAUCAAAAGAAAUAGUCAUACGCUCAACCAGAAAGUCUGUAAUCAUUUUAAGGGUA [A69C U102A G104A], the self-cleavage worked out at 0.01.
